The values that follow come from PubChem BioAssay AID1347073 (National Center for Advancing Translational Sciences (NCATS), 2019).

In all, about 45,000 compounds went through this assay and about 200 (0.44%) were called active. Roughly 7% stayed inconclusive and do not appear here. The call rests on the fitted dose curve; in most records, active means well fitted activation curve with a large enough effect; inconclusive means small, poorly fitted or top-dose-only effect; inactive means no such curve, though single readings can be large or run the other way. The list shows a part of the results.

The assay can be described thus: qHTS of TDP-43 Inhibitors: NCGC Sytravon Library Screen. Further: 0% is about no effect; nearly all actives have a fitted effect of over 55% in size. Conditions: yeast TDP-43 toxicity rescue, BacTiter-Glo growth, 24 h; series mostly up to 46.1 µM; growth rescue (activation): at the top concentration. Summed up: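 TDP-43-expressing yeast, pregrown in raffinose, seeded at OD600 0.02 in galactose medium with compound for 24 hr at 30 deg C. Growth read by BacTiter-Glo luminescence, so rescue of toxicity appears as activation.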
In general terms: In qHTS, concentration-response curves come from the screen itself.
As to `Cc1nonc1CN(C)C(=O)CC1C(=O)NCCN1Cc1ccccc1C(F)(F)F` (centres undefined), the “growth rescue (activation)” value is inactive: 11.8%.

For `COc1ccc2nc(N3C(=O)C(O)=C(C(=O)c4ccco4)C3c3ccco3)sc2c1` (centres undefined), the “growth rescue (activation)” value was inactive: -2.25%.

For the compound `COc1ccccc1C/C(N)=N/OC(=O)c1cccc([N+](=O)[O-])c1C`, the “growth rescue (activation)” value is inactive: -71%.

Regarding `CN1/C(=C/C(=O)COC(=O)CN2C(=O)C3CC=CCC3C2=O)C(C)(C)c2ccccc21` (centres undefined), the “growth rescue (activation)” value is inactive: 8%.

Take `Cc1cc(CNC(=O)c2cccc([N+](=O)[O-])c2)c2ccccc2n1`: the “growth rescue (activation)” value was inactive: -4.65%.

Consider `O=C(NCC1c2ccccc2CCN1C(=O)CN1C(=O)c2ccccc2C1=O)C1CCCCC1` (centres undefined), for which the “growth rescue (activation)” value is inactive: 5.61%.

`CCOC(=O)c1cnc2ccc(Cl)cc2c1Nc1ccc(S(=O)(=O)Nc2ncccn2)cc1`: the “growth rescue (activation)” value was inactive: 4.37%.

As to `Cc1ccc(C)c(Cn2c(=O)n(CCCC(=O)NCc3ccc4c(c3)OCO4)c(=O)c3sccc32)c1`, the “growth rescue (activation)” value was inactive: 4.42%.

Turning to `COc1cc2c(cc1OC)CN(C(C)C(=O)N1CCc3ccccc31)CC2` (centres undefined), the “growth rescue (activation)” value is inactive: 4.95%.

Take `COc1ccc(C(=O)C[n+]2ccccc2C)cc1`: the “growth rescue (activation)” value was inactive: -7.85%.

With `Cc1cc([N+](=O)[O-])ccc1NCc1ccccc1[N+](=O)[O-]`, the “growth rescue (activation)” value is inactive: 17.5%.

Regarding `Cc1cccc(-c2nc(C#N)c(N3CCC(C)CC3)o2)c1`, the “growth rescue (activation)” value is inactive: 6.27%.

As for `CCOC(=O)c1c(C)[nH]c(C(=O)NNC(=O)c2ccccc2F)c1C`, the “growth rescue (activation)” value was inactive: 10.8%.

In the case of `CC(C)(C)n1cnc2cc(NCc3ccc(Br)cc3)ccc21`, the “growth rescue (activation)” value was inactive: -12.2%.

Take `CCOC(=O)C1(CCCc2ccccc2)CCN(Cc2ccn[nH]2)CC1`: the “growth rescue (activation)” value is inactive: -4.99%.

Regarding `COC(=O)CC1C(=O)NCCN1C(=S)Nc1ccc(F)cc1` (centres undefined), the “growth rescue (activation)” value was inactive: 7.21%.

In the case of `Cc1ccc(C(=O)N2N=C(c3ccccc3)CC2(O)C(F)(F)F)o1` (centres undefined), the “growth rescue (activation)” value is inactive: 31.4%.

Regarding `CC(C(=O)NC(C)(C)C)N(C(=O)CS(=O)CC(=O)Nc1ccc(F)cc1)c1ccccc1F` (centres undefined), the “growth rescue (activation)” value is inactive: 10.9%.

For `O=C(COC(=O)c1ccc(F)cc1F)NCc1ccc2c(c1)OCO2`, the “growth rescue (activation)” value is inactive: 18.6%.

As to `CC1CCC2(CC1)N=C(c1ccccc1)C(=O)N2CC(=O)Nc1ccc(F)c(Cl)c1` (centres undefined), the “growth rescue (activation)” value was inactive: 8.55%.

Consider `CN(Cc1ccccc1)S(=O)(=O)c1ccc(Cl)c(C(=O)OCC(N)=O)c1`, for which the “growth rescue (activation)” value is inactive: 27.6%.

On to `CC1=C(C)CC(C(=O)NC(C)CCc2ccccc2)C(C(=O)O)C1` (centres undefined), for which the “growth rescue (activation)” value was inactive: 9.21%.

As for `CC(=O)c1ccc(S(=O)(=O)NC2CCCCCCC2)cc1`, the “growth rescue (activation)” value is inactive: 10%.

As for `COc1cccc(CNC(=O)c2ccc3c(c2)nc2n3CCCCC2)c1OC`, the “growth rescue (activation)” value was inactive: -3.68%.

Consider `COc1ccc(/C=C/C(=O)OCC(=O)NC2CCCC2)cc1OC`, for which the “growth rescue (activation)” value is inactive: 14.2%.

Consider `CC(C)NCC(=O)Nc1c2c(nc3ccccc13)CCC2`, for which the “growth rescue (activation)” value is inactive: 2.46%.

On to `COc1ccccc1NC(=O)CNC(=O)CC12CC3CC(CC(C3)C1)C2`, for which the “growth rescue (activation)” value is inactive: -13.4%.

For `O=[N+]([O-])c1cccc(-c2nnc(-c3ccccc3)o2)c1`, the “growth rescue (activation)” value was inactive: -7.32%.

On to `CC1(C2CC2)NC(=O)N(CC(=O)NCC(=O)Nc2ccc(F)c(F)c2F)C1=O` (centres undefined), for which the “growth rescue (activation)” value was inactive: -5.13%.

For `Cc1ccc(C(=O)NCC(=O)O)s1`, the “growth rescue (activation)” value is inactive: -9.72%.

Consider `Cc1ccc(SCCC(=O)Nc2cccnc2)cc1`, for which the “growth rescue (activation)” value is inactive: 12.8%.

With `COc1cccc(Oc2nccc(N(C)C)c2C#N)c1`, the “growth rescue (activation)” value was inactive: 0.535%.

As to `O=C(NCc1cccs1)C1CC(O)CN1C(=O)Nc1ccccc1` (centres undefined), the “growth rescue (activation)” value is inactive: -11.9%.

Consider `CCOc1ccc(C(=O)Nc2ccc(NC(=S)NC(=O)CC)cc2)cc1Cl`, for which the “growth rescue (activation)” value is inactive: -10.6%.

For the compound `CCOc1ccc(N2C(=O)CC(SC(=NC)Nc3cccc(F)c3)C2=O)cc1` (centres undefined), the “growth rescue (activation)” value is inactive: 0.857%.

As to `CCc1nc(SCc2ccc([N+](=O)[O-])cc2)n[nH]1`, the “growth rescue (activation)” value was inactive: 9.64%.

As to `Cc1ccc(NC(=O)CCc2ccc(S(=O)(=O)N3CCOCC3)cc2)c(O)c1`, the “growth rescue (activation)” value was inactive: -3.36%.

Take `CC1CCCN(C(=O)COC(=O)Cn2cnc3ccccc32)C1` (centres undefined): the “growth rescue (activation)” value is inactive: 6.66%.

On to `COc1cc(C(=S)N2CCOCC2)cc(OC)c1OC`, for which the “growth rescue (activation)” value is inactive: -9.17%.

As to `COC(=O)c1ccc(C(=O)N2CCCC(C)(C(=O)NS(=O)(=O)C3CC3)C2)cc1` (centres undefined), the “growth rescue (activation)” value was inactive: -4.95%.

As for `CCOc1ccc(S(=O)(=O)N/N=C2/CCCC(=O)C2)cc1`, the “growth rescue (activation)” value is inactive: 2.27%.

For the compound `CCOC(=O)c1c(NC(=O)c2ccccc2)sc2c1CCc1ccccc1-2`, the “growth rescue (activation)” value is inactive: 8.82%.

Take `CN1c2ccccc2N(C)C1(C)c1ccccc1`: the “growth rescue (activation)” value is inactive: -0.353%.

For `O=C(NCCc1ccccc1)C1CCN(S(=O)(=O)N2CCCCCC2)CC1`, the “growth rescue (activation)” value is inactive: -8.55%.

Turning to `CC1=C(C(=O)Nc2cccc(C(F)(F)F)c2)C2(CCCCC2)OC1=O`, the “growth rescue (activation)” value was inactive: 11.1%.

For `CC1CCN(CCCNC(=O)c2ccc3c(Cl)c4c(nc3c2)CCCC4)CC1`, the “growth rescue (activation)” value was inactive: 0.309%.

For `c1cnn(Cc2cnc(N3CCOCC3)s2)c1`, the “growth rescue (activation)” value was inactive: 8.31%.

Take `CN(Cc1cn(C)nc1-c1ccccc1F)Cc1nccn1C`: the “growth rescue (activation)” value is inactive: 2.57%.

Regarding `CC(=O)Nc1ccc(NC(C)=O)c(NC2OCC(O)C(O)C2O)c1` (centres undefined), the “growth rescue (activation)” value was inactive: 24.5%.

Regarding `O=C1CC(c2ccc(F)cc2)CC2=C1C(c1ccc([N+](=O)[O-])o1)Nc1ccccc1N2` (centres undefined), the “growth rescue (activation)” value was inactive: 5.68%.

Take `COc1cc(/C=C/C(=O)c2ccc(O)cc2)ccc1OCC#N`: the “growth rescue (activation)” value is inactive: -14.2%.

On to `O=C(COc1ccccc1[N+](=O)[O-])N/N=C/c1ccncc1`, for which the “growth rescue (activation)” value is inactive: 7.98%.

Take `NS(=O)(=O)c1ccc(CNS(=O)(=O)c2ccc(Cl)nc2)cc1`: the “growth rescue (activation)” value is inactive: -7.11%.

In the case of `CS(=O)(=O)N(CC(=O)N1CCc2ccccc2C1)c1ccc(Cl)cc1F`, the “growth rescue (activation)” value was inactive: 14.8%.

Take `Cc1cc(C)n(-c2ccc(Cl)c(C(=O)O)c2)n1`: the “growth rescue (activation)” value is inactive: -16.7%.

As for `Cn1cc(Cl)c(C(=O)OCC(=O)c2ccccc2)n1`, the “growth rescue (activation)” value is inactive: 20.3%.

Consider `Cc1cccc(C(=O)OCC(=O)N2CC(=O)Nc3ccccc32)c1C`, for which the “growth rescue (activation)” value is inactive: -18.7%.

As to `O=C(CSCc1ccccc1)N=Nc1c(O)[nH]c2ccccc12`, the “growth rescue (activation)” value is inactive: -6.38%.

As for `CCC(=O)Nc1cccc(-c2cn3ccccc3n2)c1`, the “growth rescue (activation)” value is inactive: 4.5%.

Take `CCOC(=O)CNC(=O)CN1C(=O)CC(c2ccco2)Sc2ccccc21` (centres undefined): the “growth rescue (activation)” value was inactive: 11.2%.

Turning to `Cc1cccc2c1NC(=O)C21OCC(CO)([N+](=O)[O-])CO1` (centres undefined), the “growth rescue (activation)” value was inactive: -0.997%.

In the case of `COc1ccccc1NC(=O)C(C)N(C)CCOc1ccccc1` (centres undefined), the “growth rescue (activation)” value was inactive: 3.27%.

Take `CCc1ccccc1NC(=O)Cn1nnc(C(=O)NCc2cccs2)c1N`: the “growth rescue (activation)” value is inactive: 18.3%.

Turning to `Cn1nc(C(C)(C)C)cc1C(=O)N1CCCCC1c1cc(C(=O)Nc2ccc(F)c(Cl)c2)no1` (centres undefined), the “growth rescue (activation)” value was inactive: 6.42%.

As to `CCc1c(O)nc2ccccn2c1=O`, the “growth rescue (activation)” value is inactive: 15.2%.

Regarding `Cc1c(Cl)cccc1NC(=O)CCCn1cnc([N+](=O)[O-])n1`, the “growth rescue (activation)” value was inactive: 39.4%.

Regarding `Cc1cc(=O)oc2c3c(cc(OCC(=O)NCCC(=O)N[C@@H](C)C(=O)O)c12)OC(C)(C)CC3`, the “growth rescue (activation)” value is inactive: 3.39%.

For `COc1cc([N+](=O)[O-])ccc1NC(=O)COC(=O)c1c[nH]c(=O)[nH]c1=O`, the “growth rescue (activation)” value is inactive: 12.5%.

Regarding `CCOc1ccc(NS(=O)(=O)c2cc(NC(=O)CCC(=O)c3cccs3)ccc2Cl)cc1`, the “growth rescue (activation)” value is inactive: 6.97%.
